Binding signal data for 172 sequences are collected here from publication PMC6212790.

This is one part of the list. At the low end of the ranking the order means little.

In the test the target is T1, GST-Rok (full length) (UniProt O34857).
T1 sequence: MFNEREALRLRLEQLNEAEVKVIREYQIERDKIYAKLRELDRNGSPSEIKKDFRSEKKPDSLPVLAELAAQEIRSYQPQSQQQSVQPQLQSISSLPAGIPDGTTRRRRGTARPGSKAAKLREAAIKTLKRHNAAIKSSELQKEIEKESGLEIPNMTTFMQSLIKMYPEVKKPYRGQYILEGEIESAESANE
Briefly: protein binding microarray.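 Note: rank score from −0.5 (least bound) to 0.5 (best bound).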 Particulars: Rok is a gene silencer of Bacillus subtilis; high values mean tight binding; most listed sequences are background and not binding sites; double strand, one strand shown.
Sequence AGCTAGTG had a binding signal of 0.229 E-score.

As for TCACAAAA, the binding signal is -0.0579 E-score.

As for GCCGTTAC, the binding signal worked out at 0.14 E-score.

On to GCCGTTCA, for which the binding signal is -0.0857 E-score.

The sequence CGCTCTGC gave a binding signal of -0.209 E-score.

For CTCACTCA, the binding signal came to 0.0449 E-score.

For TACGCCAA, the binding signal turned out to be 0.0298 E-score.

In the case of ATAACTAG, the binding signal is 0.243 E-score.

As to CCGGCCAA, the binding signal is -0.257 E-score.

Consider GTCCGCTA, for which the binding signal was -0.189 E-score.

With AGCGCGTG, the binding signal is -0.0994 E-score.

Consider TGAGCCCA, for which the binding signal was -0.203 E-score.

On to ATACGAAT, for which the binding signal came out at 0.172 E-score.

On to CTGGTCAC, for which the binding signal is -0.281 E-score.

On to ACAGGGTA, for which the binding signal is -0.00656 E-score.

CCTCAAAG displayed a binding signal of -0.166 E-score.

On to GAGGTCGC, for which the binding signal is -0.279 E-score.

In turn, ACAGTCGT returned a binding signal of -0.0214 E-score.

Sequence CTGTTCAC showed a binding signal of 0.0251 E-score.

Take CGGACGCC: the binding signal is -0.313 E-score.

In the case of ATTTTCAG, the binding signal was 0.104 E-score.

Sequence GATTTCGA yielded a binding signal of 0.183 E-score.

CACGCCAC showed a binding signal of -0.225 E-score.

As to TCATAAAA, the binding signal was found to be 0.194 E-score.

Sequence CATCTATC gave a binding signal of 0.289 E-score.

Consider ATCGATGC, for which the binding signal was determined as 0.165 E-score.

Take CTGGCCAG: the binding signal was -0.266 E-score.

The sequence TCAGTTAA returned a binding signal of 0.221 E-score.

The sequence CCTATATC registered a binding signal of 0.00873 E-score.

The sequence GATATCTA had a binding signal of 0.4 E-score.

GATGACAA: the binding signal was 0.124 E-score.

In the case of GAGCGAAA, the binding signal is -0.0169 E-score.

Consider CCTCGTAC, for which the binding signal is -0.194 E-score.

In turn, ACGACAAA came in with a binding signal of 0.0714 E-score.

Take GCATGGGC: the binding signal is -0.196 E-score.

Sequence CGTCAACC showed a binding signal of -0.18 E-score.

On to CTACGGAC, for which the binding signal is -1.04e-05 E-score.

On to CCATGTAA, for which the binding signal amounted to 0.217 E-score.

CCAAAGGG: the binding signal is -0.318 E-score.

Sequence ACTAAGCG came in with a binding signal of -0.228 E-score.

Take ATAAAACG: the binding signal amounted to 0.0497 E-score.

TATAGGCA returned a binding signal of 0.157 E-score.

Consider GGCAGATA, for which the binding signal is -0.0284 E-score.

CCTGGGAC: the binding signal was -0.26 E-score.

Consider AGATTATG, for which the binding signal was found to be 0.103 E-score.

The sequence AACACTGG registered a binding signal of -0.173 E-score.

In turn, AGATATAC gave a binding signal of 0.238 E-score.

CGAAGTAG: the binding signal was determined as 0.179 E-score.

Take CTCGAAGC: the binding signal is -0.306 E-score.

ATTGATTC showed a binding signal of 0.127 E-score.

In the case of ATCAAATA, the binding signal worked out at 0.262 E-score.

Sequence GGCCTAAA registered a binding signal of -0.0996 E-score.

Turning to TCCCGCCA, the binding signal is -0.156 E-score.

On to ATTCTTCG, for which the binding signal was determined as 0.166 E-score.

The sequence ACATGCAC gave a binding signal of 0.141 E-score.

The sequence CTCGACGA registered a binding signal of -0.125 E-score.

Take GGTGCGTA: the binding signal was -0.109 E-score.

CTAAGAAC gave a binding signal of -0.101 E-score.

Regarding AGATCAGC, the binding signal is -0.0777 E-score.

In turn, AATGCATG returned a binding signal of -0.0198 E-score.

ATCGAAGA: the binding signal was -0.0316 E-score.

Sequence AATCTGGG yielded a binding signal of 0.013 E-score.

In the case of GAGGCCGA, the binding signal is -0.352 E-score.

The sequence AGACAGCA showed a binding signal of -0.138 E-score.

Consider ATATAAAC, for which the binding signal is 0.262 E-score.

ATACTCGA showed a binding signal of 0.176 E-score.

As for AGACATGA, the binding signal is -0.0138 E-score.

GCATAGCC: the binding signal was -0.0878 E-score.

Consider AGTCGGTA, for which the binding signal was 0.187 E-score.

Regarding AGGCGGGG, the binding signal was -0.296 E-score.

As for AAGTTCGA, the binding signal was 0.213 E-score.

For AATGTATC, the binding signal came out at 0.224 E-score.

For TATGACGA, the binding signal was found to be 0.139 E-score.

CTAATGTC: the binding signal was 0.0193 E-score.

ATCTTCGC had a binding signal of -0.0637 E-score.

In the case of CTCCTAGA, the binding signal was -0.0961 E-score.

In turn, AGAAACAC displayed a binding signal of -0.0933 E-score.

In turn, AAGATTGT displayed a binding signal of 0.0761 E-score.

CTCGCTAA showed a binding signal of -0.0951 E-score.

In turn, ATCTAATC showed a binding signal of 0.351 E-score.

AGAGCCGC: the binding signal is -0.305 E-score.

In the case of CAAGTACC, the binding signal was 0.081 E-score.

As for CAGCAGCC, the binding signal was -0.345 E-score.

With AGGGCAGC, the binding signal was -0.405 E-score.

On to GAGTTCCC, for which the binding signal was -0.109 E-score.

Sequence TAAAACTA came in with a binding signal of 0.375 E-score.

In the case of GGCTTCAC, the binding signal is -0.305 E-score.

CCTGGCTC had a binding signal of -0.272 E-score.

GGTATTTA registered a binding signal of 0.356 E-score.

Sequence GCTAATAC came in with a binding signal of 0.244 E-score.

The sequence ACGGTATG came in with a binding signal of 0.0718 E-score.

For the sequence GTGCTTAA, the binding signal is -0.0199 E-score.

Take ATAGCAAA: the binding signal was 0.187 E-score.

GCATCAGC displayed a binding signal of -0.115 E-score.

In the case of GCCAATTA, the binding signal was -0.0326 E-score.

The sequence CACATACC registered a binding signal of 0.172 E-score.

Sequence AAATAAAG displayed a binding signal of 0.126 E-score.

CAACTTGA yielded a binding signal of -0.101 E-score.

Turning to CGTCTGCC, the binding signal is -0.361 E-score.

CTGGCACC came in with a binding signal of -0.218 E-score.

Consider GGCAGGAA, for which the binding signal came to 0.059 E-score.

In the case of CGATTCTC, the binding signal was found to be 0.123 E-score.

With ATATATCG, the binding signal worked out at 0.381 E-score.

Regarding AAGCTCGT, the binding signal was -0.333 E-score.

For the sequence CATCCCCG, the binding signal is -0.144 E-score.

Consider AGTTTAAT, for which the binding signal stood at 0.208 E-score.

Sequence CTAAGCAC had a binding signal of -0.0167 E-score.

As for CACACGGC, the binding signal was -0.092 E-score.

On to AAATGGTA, for which the binding signal was found to be 0.274 E-score.

In turn, GAGACAAC had a binding signal of -0.128 E-score.

Regarding AAAGATTG, the binding signal worked out at 0.0428 E-score.

On to CCACCTGA, for which the binding signal was -0.253 E-score.

GATTTCAA showed a binding signal of -0.0853 E-score.

Sequence AACAACTC had a binding signal of 0.0513 E-score.

In the case of CCCGAGGC, the binding signal was -0.324 E-score.

CCATTCGC yielded a binding signal of -0.137 E-score.

For AACACGAA, the binding signal was 0.0286 E-score.

As to ACGCTTGA, the binding signal was -0.0199 E-score.

Regarding AACTTATA, the binding signal was 0.403 E-score.

CCAATGGG had a binding signal of -0.118 E-score.

With ATGCTTGC, the binding signal is -0.246 E-score.

The sequence CTCTAACC had a binding signal of -0.055 E-score.

Sequence CTGCTTGA yielded a binding signal of 0.00245 E-score.

Sequence TAACGGCA returned a binding signal of -0.0579 E-score.

In turn, ATTCACAC returned a binding signal of 0.148 E-score.

ACCTCAAT had a binding signal of 0.0786 E-score.

As for AGAACTAT, the binding signal worked out at 0.381 E-score.

Turning to AATTACGC, the binding signal worked out at 0.211 E-score.

For the sequence AAAAAACC, the binding signal came out at 0.125 E-score.

On to ATAGCAAC, for which the binding signal came out at 0.224 E-score.

In the case of CATCGACC, the binding signal is -0.0646 E-score.

Sequence GGGTATAA had a binding signal of 0.205 E-score.

As to CCGGTGCC, the binding signal is -0.257 E-score.

In turn, ATTTCAGA yielded a binding signal of 0.192 E-score.

Regarding CTCACGCC, the binding signal was -0.28 E-score.

The sequence AATATAAG displayed a binding signal of 0.275 E-score.

As to CCCTTGCG, the binding signal was -0.348 E-score.

AGCGCGGA had a binding signal of -0.184 E-score.

CACGCAAA came in with a binding signal of -0.106 E-score.

Turning to CATTGACC, the binding signal amounted to 0.0269 E-score.

Sequence CGAGCAGC came in with a binding signal of -0.106 E-score.

ATTTTATC had a binding signal of 0.312 E-score.

Consider ACGGACAC, for which the binding signal was -0.126 E-score.

Turning to GAGACATC, the binding signal was determined as 0.00331 E-score.

ATGCCTTA: the binding signal came out at 0.0864 E-score.

ATGACTTG yielded a binding signal of -0.0121 E-score.

TAGGGAAA yielded a binding signal of 0.0583 E-score.

In the case of CGAAAATA, the binding signal came out at 0.244 E-score.

Sequence AAGCTCAT yielded a binding signal of 0.128 E-score.

In the case of ATCTGGGC, the binding signal is -0.0839 E-score.

In turn, ATTACTAG returned a binding signal of 0.398 E-score.

As for ACGTTAAT, the binding signal was 0.171 E-score.

For the sequence ATACGTAC, the binding signal came to 0.312 E-score.

The sequence ATTCTAAC gave a binding signal of 0.0638 E-score.

Take ATTAGTGA: the binding signal was 0.192 E-score.

GCACAGGC came in with a binding signal of -0.229 E-score.

AGGGGGCG had a binding signal of -0.332 E-score.

ACTTGGGA yielded a binding signal of -0.0812 E-score.

For the sequence CGTCTCTC, the binding signal is -0.199 E-score.

For CAACAACA, the binding signal was 0.0149 E-score.

The sequence AGTAATCG had a binding signal of 0.0386 E-score.

Consider GTACGCGA, for which the binding signal came to 0.136 E-score.

As to GAAACTTC, the binding signal was 0.224 E-score.

Consider AACCCGCA, for which the binding signal is -0.126 E-score.

For ATCACTAG, the binding signal is 0.208 E-score.

As to CGGTGCGC, the binding signal is -0.341 E-score.

Turning to ATAAGATA, the binding signal worked out at 0.317 E-score.

The sequence ACTTCGAC yielded a binding signal of 0.022 E-score.

Turning to AGGGACCA, the binding signal is -0.203 E-score.

The sequence ATTCTTAG returned a binding signal of 0.165 E-score.

On to GATAAAAC, for which the binding signal was found to be 0.232 E-score.

Consider AGGTTACC, for which the binding signal was -0.0392 E-score.
